Test results from the supplement of paper PMC11417369.
This is one part of the list.

Test system: PfSIP2 AP2 domain 1 (GST-tagged)
Assay: gcPBM binding intensity (ln(normalized median fluorescence intensity)); higher = stronger DNA binding
Procedure, shortened: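 The highest Masliner-normalised natural-log median intensity across replicate spots of either probe orientation is reported as binding intensity. GST-tagged P. falciparum DNA-binding domains expressed in E. coli were applied for 1 h to an Agilent 4 × 180k array of primer-extended double-stranded 36-bp intergenic genomic probes plus negative controls, and bound protein was detected with Alexa488 anti-GST antibody and scanned at 488 nm.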

Sequence | gcPBM binding intensity (ln)
TTTTTTTTTTCAAATGCATGCAAAAAAAAAAAAATA [TGCATGCA_site945] | 6.97
TATATGTATGTTTGTTTGTTTGTATTTTTTAAGGTA [XGTACX_negctrl_site619] | 6.93
TTTTCTTTTTCCAAAAGTACGTAATTTAAACATTTT [XGTACX_site2066] | 6.76
AAATTAGAAATACCTACACACTTATCAAAATAAATT [CACACA_site7132] | 6.81
ATAATTATGAAGCATACATGCATGTCCTGGCTTAAA [TGCATGCA_site491] | 6.9
TTATAATATGGATACACACACATATATAAATATATA [CACACA_site5314] | 6.98
AAAAAATAAATAAATACACACAAATCTATATTTATA [CACACA_site7243] | 6.76
ATCTAAATTTTTCCATGTACATATACTTTTATGCAT [XGTACX_site2683] | 7.46
GCAAGGAAATAATTGATAATATATATATATATATAT [GTGCAC_negctrl_site400] | 9.31
GAGTAAATAAATAAATGTACATATATATATATTATC [XGTACX_site8466] | 7.27
ATACATAAATATTGATGTACTCATTTAATATATTAT [XGTACX_site3992] | 6.87
AATATATATATATATATATATTTTTGTTAGAATATG [XGTACX_negctrl_site58] | 7.88
TATAATAAATATTAACGTACTCATATATATATATAT [XGTACX_site3871] | 9.04
CTAAAATACGGACACACACACACATATATATATATA [CACACA_site6138] | 9.61
ATTGTATATAAATGAGTGCATACTATGTTGTTCTTA [GTGCAC_site9678] | 8.72
ATTATCTCCGCCATGTGGACACATATAAGACATTTT [XGTACX_site2889] | 7.28
AAAAAAAAAAAAAACACACACACAAAAAAAAATATA [CACACA_site1104] | 7.41
AGGCTACGAATAGAATGTACCCGAAATAAGGAATAT [XGTACX_site6012] | 7.03
TATGTAAATCTCTTAAGAATTCGCTATATCTCTTTT [CACACA_negctrl_site1180] | 6.55
ATATAAGCGTATACATGTACATATATATCTTTGTAA [XGTACX_site2742] | 7.07
AAAAAAAAATGTCATGGTACACAATTTTTTCTTTTT [XGTACX_site4505] | 6.48
TAAAGTAAAACAAGGTAAGGTTTTTCTTTTTCTTTT [CACACA_negctrl_site1271] | 6.32
AATAAATTATGAACGGTGCAGGAAAAATTGTAACAT | 9.26

Sequence | gcPBM binding intensity (ln)
TAGATTATTTTATTTAGTACATAAAAAAGTAAGACC [XGTACX_site7889] | 7.43
CAAAAAAACAAACACACACACACACCGATATATATA [CACACA_site9218] | 7.36
AAACATAAGGGACACACACACATATATATATATATA [CACACA_site5920] | 9.81
TGAAGTGCAAAATACTGTACGTAATGTGCTTGTTAC [XGTACX_site4512] | 8.73
CAATCTTTTACGAATACACACACATAAAGAAAAAAA [CACACA_site8367] | 7.12
TTAAATAAATAAAAATGTACATGCATATATAAATAT [XGTACX_site8908] | 7.12
AATTTTTTATATGTCACACATTTGTTATTATTATTA [CACACA_site4197] | 6.86
AAAAAGAATAAATAAATATAAATAAATAAATATATA [GTGCAC_negctrl_site336] | 6.68
ACATATAGAAGTATCTATAAACAGTGATAGCATTTT [CACACA_negctrl_site1122] | 6.81
AAAACACAAAAAAAATGTACACATATATATATATAT [XGTACX_site8509] | 8.78
TAACTATATTTTTACTGTACAAAAAAATTAAATAAT [XGTACX_site1765] | 7.13
ATATTAATTCTACATTGTACACATGAAAAAATATAA [XGTACX_site8759] | 7.22
CATTATGTCGTAAATACACACATACAGATACATACA [CACACA_site4880] | 7.15
AAATTAAATAAATTTACACACTAAAAATTACAGATA [CACACA_site4722] | 6.83
GTTATATATAATAATTGTACAAAATTAAATATAACT [XGTACX_site4189] | 6.99
TTTTTATTTGGTTGTGTACACATATATATATATATA [CACACA_site5844] | 9.3
AAAAAACACCCACATACACACAAAAATGTTATAAAT [CACACA_site81] | 6.87
CTAAGAAAAAATAAAGCACACAAATATTTTAAAAAC [CACACA_site9094] | 6.73
AAAAAAAAATATAACAGTACATAAACATATGAATAT [XGTACX_site7093] | 6.91
TTTTATAATTTCTTCTGTACATATATATGAAAATAT [XGTACX_site74] | 7.16
TCAACCAAAACATAAGCATGCAATATATTTTTATAC [TGCATGCA_site560] | 7.16
TTATATATTTTTATGTGTACTTATATATATATATAT [XGTACX_site6211] | 9.53
